# Out of some 310,000 compounds screened, about 14,000 (4.5%) showed an effect of 50% or more. Effects have a minus sign here. Some of the results follow.
# Biological target: human ether-à-go-go-related gene (hERG) potassium channel (human, UniProt Q12809)
# Assay: primary screen, population patch clamp on CHO cells stably expressing hERG
# 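Further: peak tail current of the secondary pulse compared with the same well before compound.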
# human ether-à-go-go-related gene (hERG) potassium channel, sequence (Q12809 whole entry, looked up): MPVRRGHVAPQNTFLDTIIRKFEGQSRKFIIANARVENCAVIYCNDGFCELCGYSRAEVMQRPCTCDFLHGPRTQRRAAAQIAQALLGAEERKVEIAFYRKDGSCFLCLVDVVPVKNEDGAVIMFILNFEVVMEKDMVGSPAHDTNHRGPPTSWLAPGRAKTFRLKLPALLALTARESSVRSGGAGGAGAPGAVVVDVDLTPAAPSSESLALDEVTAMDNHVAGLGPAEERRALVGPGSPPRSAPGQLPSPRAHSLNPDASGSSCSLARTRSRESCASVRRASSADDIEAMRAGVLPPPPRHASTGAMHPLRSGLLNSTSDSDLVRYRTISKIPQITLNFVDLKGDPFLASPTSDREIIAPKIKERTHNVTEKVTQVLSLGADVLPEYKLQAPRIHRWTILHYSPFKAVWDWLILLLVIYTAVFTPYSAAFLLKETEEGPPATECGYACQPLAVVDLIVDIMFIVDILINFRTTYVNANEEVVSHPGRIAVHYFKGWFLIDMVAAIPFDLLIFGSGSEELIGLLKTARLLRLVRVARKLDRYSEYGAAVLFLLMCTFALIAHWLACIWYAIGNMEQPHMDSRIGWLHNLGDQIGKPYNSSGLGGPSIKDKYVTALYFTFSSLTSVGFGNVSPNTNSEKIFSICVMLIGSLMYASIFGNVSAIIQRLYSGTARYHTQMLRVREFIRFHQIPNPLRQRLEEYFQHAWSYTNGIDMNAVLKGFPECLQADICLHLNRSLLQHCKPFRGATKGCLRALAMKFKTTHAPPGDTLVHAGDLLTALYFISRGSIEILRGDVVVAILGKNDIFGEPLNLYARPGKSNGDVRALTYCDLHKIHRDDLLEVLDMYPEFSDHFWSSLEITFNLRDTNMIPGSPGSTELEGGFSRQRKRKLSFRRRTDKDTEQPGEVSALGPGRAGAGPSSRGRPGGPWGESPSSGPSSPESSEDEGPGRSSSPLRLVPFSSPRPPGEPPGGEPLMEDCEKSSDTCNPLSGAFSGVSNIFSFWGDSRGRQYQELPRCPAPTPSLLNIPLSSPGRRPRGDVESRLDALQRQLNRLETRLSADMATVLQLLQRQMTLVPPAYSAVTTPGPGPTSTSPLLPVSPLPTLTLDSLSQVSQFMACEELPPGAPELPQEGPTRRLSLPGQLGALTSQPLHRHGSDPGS
row,Compound,"hERG current change (%, negative = inhibition) at 10uM [%]"
1,Cc1cccc(NC(=O)Cn2cnc3ccccc3c2=O)c1C,-5
2,COc1ccc(C(NC(=O)c2c(F)c(F)c(F)c(F)c2F)c2ccccc2)cc1 (centres unmarked),14.2
3,Cc1nnc(NC(=O)C2(c3ccccc3)CCOCC2)s1,16.9
4,Cc1ccc(C(=O)O)cc1NC(=O)CSc1ncnc2sc3c(c12)CCC3,-7.04
5,O=C(c1cnccn1)N1CCc2c([nH]c3ccccc23)C1c1cccc(Cl)c1 (centres unmarked),-33.6
6,CCOCCCNS(=O)(=O)c1ccc(NC(=O)C2CC(=O)N(c3ccc(C)cc3)C2)cc1 (centres unmarked),0.687
7,C/C(CC(=O)Nc1cc(C)ccn1)=N\NC(=O)C(=O)Nc1cccc(C)c1,-9.79
8,COc1ccc(/C=C(\NC(=O)c2cccs2)C(=O)NN)cc1OC,11.3
9,CC1CN(C(=O)C(C)Sc2nnnn2C)CC(C)O1 (centres unmarked),15.9
10,O=[N+]([O-])c1ccc(S(=O)(=O)NCCc2ccncc2)cc1,-12.7
11,COc1ccc(-c2oc3ccc(-c4cc(OC)c(OC)c(OC)c4)cc3c2-c2ccc(OC)nc2)cc1,14
12,COc1cc(OC)cc(C(=O)N2CCC(N3CCN(c4ccccc4)CC3)CC2)c1,-26.9
13,CCOc1ccccc1/C=N/n1c(COc2ccccc2)n[nH]c1=S,11.6
14,COc1ccc(CN(C)C(=O)c2cccc(NS(=O)(=O)c3ccccc3)c2)cc1F,-17.8
15,COc1cccc(CCNC(=O)c2cc(COc3c(F)cccc3F)on2)c1,-44
16,CCN(CC)CCCNC(=O)c1ccc(S(=O)(=O)Nc2ccc(C)c(C)c2)cc1,-19.8
17,O=C(NCCO)c1cccc(Nc2nc(-c3ccccc3)c3cc(Cl)ccc3n2)c1,-6.4
18,Cc1ccc(S(=O)(=O)N2CC(O)CC2C(=O)O)cc1 (centres unmarked),20.7
19,CC1CCN(CCc2nc3cc(NC(=O)COc4ccc([N+](=O)[O-])cc4)ccc3n2C)CC1,-68.4

row,Compound,"hERG current change (%, negative = inhibition) at 10uM [%]"
1,O=C(O/N=C1/CCSc2ccccc21)c1ccc(F)cc1,19.8
2,CC(C)c1ccc(/C=N/NC(=O)c2nnn(-c3nonc3N)c2CN(C)C2CCCCC2)cc1,14.1
3,Cc1cccc2sc(NS(=O)(=O)c3ccccc3)nc12,-4.36
4,CCn1nccc1C(=O)Nc1nccs1,6.12
5,COc1cc(C(=O)NC(=S)Nc2cccc3nc(C)ccc23)cc(OC)c1OC,13.7
6,CCn1c(SC(C)C)nnc1C1CCN(S(=O)(=O)c2ccc(OC)cc2)CC1,-20.6
7,C#CCOc1nc(C)cc(C)c1S(=O)(=O)c1ccccc1C,9.66
8,Nn1c(SCC(=O)Nc2ccc3c(c2)OCCO3)nnc1-c1ccccn1,-11.7
9,C/C(=C\C(=O)O)CC(=O)O,0.324
10,Oc1cccc2cc3cccc(O)c3c(O)c12,5.24
11,CCOC(=O)N1CCN(C(=O)CSCc2nc(-c3ccccc3C)oc2C)CC1,-21.2
12,O=C(c1ccoc1)N1CCC2(CC1)Oc1ccc(Cl)cc1C(=O)C21CC(c2ccc(Cl)cc2)=NO1 (centres unmarked),19.8
13,CCC1CCCCN1CCCNC(=O)CSc1nc2nc(C)c(Cc3ccccc3Cl)c(C)n2n1 (centres unmarked),-18.1
14,O=Cc1c[nH]c2ccc(C(=O)c3ccccc3)cc12,3.97
15,O=c1c(CO)cc(CO)cc(CO)c1O,8.3
16,CC(Oc1cccc(Cl)c1)C(=O)Nc1ccncc1 (centres unmarked),3.81
17,CCOC(=O)CCn1nc(-c2ccccc2)cc1N,4.26
18,CNC(=O)N/N=C(\N)c1ccccn1,7.1
19,O=C(Nc1ccccc1)c1ccc(CSc2ccccn2)cc1,-6.57

row,Compound,"hERG current change (%, negative = inhibition) at 10uM [%]"
1,O=C(Nc1ccccc1C(=O)Nc1ccccc1C(=O)NCc1ccco1)c1ccco1,3.18
2,N#CCC(=O)NN=C1CCCCCCCCCCC1,6.59
3,O=C1Nc2ccccc2N(O)N1c1ccc(Cl)cc1,19.7
4,O=c1c2ccccc2nc(-c2ccccc2)n1-c1cccnc1,-11.1
5,COc1cccc(CNC2CCCC2)c1,2.13
6,O=C(NCc1ccc2c(c1)OCO2)c1ccc(CSCc2cccc(Cl)c2)o1,-11.1
7,CC(C)CC(NC(=O)CCC(=O)OCC(=O)[C@@]1(O)CCC2[C@@H]3CCC4=CC(=O)C=C[C@]4(C)C3[C@@H](O)C[C@@]21C)C(=O)O (some centres unmarked),0.23
8,Cc1c(OC(C)C(=O)O)ccc2c3c(c(=O)oc12)CCCC3 (centres unmarked),11.1
9,O=[N+]([O-])c1ccc(N/N=C/c2cn(Cc3ccc(F)cc3)c3ccccc23)nc1,8.54
10,CC(C)Oc1ccc(Cn2c(-c3ccco3)n[nH]c2=S)cc1,9.79
11,O=c1c2c3c(sc2nc2n1CCC2)CCCCC3,-5.34
12,COC(=O)C1=C(c2ccc3ccccc3c2)C[C@@H]2CC[C@H]1N2C(=O)NC1CCCCC1,-5.74
13,O=C1C2C3C=CC(CC3)C2C(=O)N1c1ccc([N+](=O)[O-])cc1 (centres unmarked),12.5
14,CCOC(=O)CSc1nc2ccc(C)cc2n2cnnc12,-4.06
15,CCOC(=O)N1CCN(S(=O)(=O)c2ccc(C(=O)NNc3nc4cc(C)cc(C)c4s3)cc2)CC1,19.5
16,O=C1c2ccccc2NC2(CCCC2)N1N=C1CCCC1,-12.2
17,Cc1nn(C)c(C)c1S(=O)(=O)N1CCC(C(=O)NC2CCCCC2)CC1,10.2
18,Cc1ncoc1C(=O)N1CCc2c([nH]c3ccccc23)C1C1CCCCC1 (centres unmarked),1.89
